The whole screen tested about 52,000 compounds, of which about 4,300 (8.3%) were called active. Cut-off read from the data, not from the text of the source: active = survival mostly below about 52% (no sharp cut-off); inactive = mostly above about 56%. This is one part of the list.
Test system: DeltatarO mutant
Experiment: S. aureus survival, RN4220 and DeltatarO strains – OD600, teichoic acid synthesis inhibitors, primary screen (AID 463173)
Details: S. aureus RN4220 wild type/DeltatarO growth, OD600, 18 h, active compounds read low, screened at 18.75 µg/mL (by protocol)

Compound	survival
Cc1cccc(CSc2nnc3[nH]c(=O)cc(-c4ccccc4)n23)c1	inactive: 67%
COc1cc(-c2nc3ccc(Cl)cn3c2Nc2ccc3c(c2)OCCO3)ccc1O	inactive: 58%
CCOc1ccc(NC(=O)N2CCC(N3CCCCC3)CC2)cc1	inactive: 114%
Cc1cc(NC(=O)C2CCCN(S(=O)(=O)c3cccc4nsnc34)C2)ccc1Br (configuration not stated)	inactive: 80%
Cc1cccc(N2CCN(C(=O)Nc3ccccc3F)CC2=O)c1C	inactive: 92%
O=C(Nc1cc(Cl)cc(Cl)c1)c1ccc(F)c(S(=O)(=O)N2CCN(c3ccccc3F)CC2)c1	inactive: 84%
N#Cc1ccc(-c2ccc(OCC3CNC(=O)O3)cc2)cc1 (configuration not stated)	inactive: 63%
Cc1ccc(NC(=O)COc2ccc3oc4c(c3c2)CCCC4)cc1C	inactive: 70%
Cc1ccc(CN2COc3c(Cl)cc4c(-c5ccccc5)cc(=O)oc4c3C2)cc1	inactive: 61%
CCc1cccc(NC(=O)c2ccc3c(c2)c(C)c(C)n3Cc2ccc(F)cc2)c1	inactive: 99%
CCOc1ccccc1NC(=O)c1c(NC(=O)Cc2ccc(OC)cc2)sc2c1CCC2	inactive: 61%
Cc1ccc(OCC(=O)Nc2cccc(C(=O)OCc3cc(=O)n4c(C)csc4n3)c2)cc1	inactive: 89%
Cc1cccc(NC(=O)CSc2nnc(CSc3nc(C)cc(C)n3)o2)c1	inactive: 87%
Cc1ccccc1OCC(=O)OCc1cc(=O)n2nc(-c3cccs3)sc2n1	inactive: 87%
COc1ccccc1CNC(=O)c1nnn(CC(=O)Nc2c(C)cccc2C)c1N	inactive: 92%
Cn1c(C(=O)Nc2ccc(OC(F)(F)F)cc2)cc2c(=O)n3ccccc3nc21	active: 55%
Cc1ccc(CNC(=O)CN2N=C(c3ccccc3)CCC2=O)cc1	inactive: 89%
CC(=O)c1ccc(N2CCN(c3ncnc4c3cnn4-c3cc(Cl)ccc3C)CC2)cc1	inactive: 122%
CCOc1ccc2oc(=O)cc(CN3CCN(c4ccccc4OC)CC3)c2c1	inactive: 77%
CCc1ccc(OCc2cc(=O)n3cc(C)sc3n2)cc1	inactive: 76%
COc1cc(OC)c(OC)cc1CNCCCSc1nnnn1C	inactive: 87%
COc1cccc(NC(=O)Cn2c(=O)n(CCc3ccc(OC)c(OC)c3)c(=O)c3ccccc32)c1	inactive: 84%
COc1ccc(C(=O)N(Cc2cc(OC)c(OC)c(OC)c2)C2CCS(=O)(=O)C2)cc1Cl (configuration not stated)	inactive: 58%

Compound	survival
CCc1ccc(NCc2cc3ccc(OC)cc3n(CC(=O)Nc3ccc(C)c(Cl)c3)c2=O)cc1	inactive: 86%
Cc1cc(C)cc(N(CC(=O)NCc2ccco2)S(C)(=O)=O)c1	inactive: 83%
O=C(CN1C(=O)COc2ccc(S(=O)(=O)N3CCOCC3)cc21)N1CCN(c2ccccc2F)CC1	inactive: 85%
Cc1nn(-c2ccccc2)c2[nH]c(=O)c(CNCc3cccnc3)cc12	inactive: 102%
CC(=O)Nc1ccc(C(=O)N2CC(C)OC(C)C2)cc1 (configuration not stated)	inactive: 82%
Cc1ccc(NC(=O)C(=O)NCC2(c3ccccc3)CCCC2)cc1C	inactive: 98%
CCCOc1ccc(CNC(=O)CN2C(=O)c3cccnc3Oc3ccc(C)cc32)cc1	inactive: 85%
COc1ccc(S(=O)(=O)N/N=C(/C2CCCCC2)C(F)(F)F)cc1	active: 35%
CSc1nc(C)cc(C)c1C(N)=O	inactive: 93%
O=C(NCCCO)c1nn(-c2ccc(Cl)cc2)nc1CO	inactive: 80%
COC(=O)C1CCN(c2csc3ccc(Cl)cc3c2=O)CC1	inactive: 85%
CCOC(=O)c1c(S(=O)(=O)N2CCC(C(=O)N3CCN(c4ccc(F)cc4)CC3)CC2)c(C)n(C)c1C	inactive: 83%
CCn1nnc2cc(C(=O)Nc3ccc(Br)cc3F)ccc21	inactive: 76%
NCCCSC1=NCCCN1	inactive: 100%
Cn1c(=O)c2c(SCC(=O)N3CCc4ccccc43)nc(-c3ccc(Cl)cc3)nc2n(C)c1=O	inactive: 113%
Cc1ccc(NC(=O)C2CCCN2S(=O)(=O)c2ccc3c(c2)n(C)c(=O)c(=O)n3C)cc1C (configuration not stated)	inactive: 115%
O=C1N(Cc2ccccc2)c2ccccc2C1(O)c1c[nH]c2ccccc12 (configuration not stated)	inactive: 55%
CCCCn1c(=N)n(CCOc2ccccc2OC)c2ccccc21	inactive: 56%
CC(=O)OC1OCCOC1NC(=S)Nc1ccc(C)cc1 (configuration not stated)	inactive: 106%
CC(C)Oc1ccc(CNC(=O)Cn2nc(N3CCN(c4ccccc4)CC3)ccc2=O)cc1	inactive: 86%
Cn1cc(S(=O)(=O)N2CCOCC2)cc1C(=O)Nc1cccc(C#N)c1	inactive: 87%
CC(C)c1ccc(CNc2n[nH]c(-c3ccco3)n2)cc1	inactive: 80%
COCCNC(=O)C1=CC(c2ccc3c(c2)OCO3)=NS(=O)(=O)N1C	inactive: 103%

Compound	survival
COc1ccc(C2c3c(n(C)c4ccccc34)C(=O)N2CC(=O)Nc2ccc(F)cc2)cc1 (configuration not stated)	inactive: 91%
Cc1ccc(CSc2nc(-c3ccccc3C)nc3c2Cc2c(CO)cnc(C)c2O3)cc1	inactive: 58%
CCOc1ccc(-c2nc(SCC(=O)Nc3cc(F)ccc3F)n3[nH]c(=O)cc3n2)cc1	inactive: 91%
CCC1CN(C(=O)NCc2ccc(C)cc2)c2cc(C)ccc2O1 (configuration not stated)	inactive: 54%
O=S(=O)(NCc1ccccc1)c1cccs1	inactive: 109%
COc1ccc(C(=O)N(CC(=O)NC2CCCC2)Cc2ccc3c(c2)OCO3)cc1OC	inactive: 60%
Cc1nn(S(=O)(=O)c2ccc(C(C)C)cc2)c(C)c1S(=O)(=O)N1CCCCCC1	inactive: 84%
CCCCCn1c(=O)[nH]c2cc(C(=O)Nc3cc(OC)cc(OC)c3)ccc2c1=O	inactive: 76%
Cc1cccc(CNC(=O)C2CCCN(S(=O)(=O)c3cn(C)cn3)C2)c1 (configuration not stated)	inactive: 92%
COc1ccccc1CNC(=O)CCn1c(=O)c2ccccc2n(CC(=O)Nc2ccc(C)cc2)c1=O	inactive: 92%
Cn1nnnc1SCCCNCc1ccc(-c2ccc(Br)cc2)o1	active: 32%
NNC1=NC2CS(=O)(=O)CC2S1 (configuration not stated)	inactive: 56%
Cc1ccc2oc(=O)c3cc(C(=O)N4CCN(c5ccccc5)CC4)sc3c2c1	inactive: 65%
COC(=O)c1cc2oc3ccccc3c2n1Cc1cccc(C)c1	active: 31%
CN(C)S(=O)(=O)c1ccc2c(c1)N(CC(=O)NCc1ccccc1)C(=O)C1CCCCN21 (configuration not stated)	inactive: 67%
S=C(NCc1ccco1)NC1CCCCC1	inactive: 97%
Cc1ccccc1CCNC(=O)c1ccc2c(c1)c(C)c(C)n2C	inactive: 71%
Cc1ccc(C)c(N2CCN(C(=O)c3cc4ccc5cccnc5c4[nH]3)CC2)c1	inactive: 95%
Cc1cc(C)cc(NC(=O)CN2C(=O)CSc3ccc(S(=O)(=O)N(C)C)cc32)c1	inactive: 75%
CCOC(=O)c1c(C)oc2ncnc(Nc3ccc(F)cc3Cl)c12	inactive: 113%
O=S1(=O)N=C(NNS(=O)(=O)c2ccccc2)c2ccccc21	inactive: 103%
COc1ccc(-c2nsc(NC(=O)COc3ccc(C)c(C)c3)n2)cc1	inactive: 65%
CCc1ccccc1NC(=O)C1(S(=O)(=O)c2ccc(Cl)cc2)CC1	active: 90%

Compound	survival
O=C(NC1CC(=O)N(c2ccc(F)cc2)C1)c1cccs1 (configuration not stated)	inactive: 86%
Cc1ccc(C)c2[nH]c(=O)c(C(c3nnnn3Cc3ccccc3)N3CCN(C)CC3)cc12 (configuration not stated)	inactive: 91%
Cc1ccn2c(Nc3ccc(F)cc3)c(-c3ccc(C)o3)nc2c1	inactive: 99%
Cc1ccc2cc(C#N)c(NCc3ccccc3)nc2c1	inactive: 99%
COc1ccc(CNC(=O)C2CCN(c3nc4ccccc4[nH]3)CC2)c(OC)c1	inactive: 124%
CC(=O)N(Cc1cc2cc(C)c(C)cc2n2nnnc12)CC1COCCO1 (configuration not stated)	inactive: 92%
COc1cc(CN(C(=O)COc2ccc(Br)cc2)c2ccccn2)cc(OC)c1OC	inactive: 60%
COc1ccc(-c2oc3ncn4nc(-c5cccc(C)c5)nc4c3c2-c2ccc(OC)cc2)cc1	inactive: 72%
Cc1ccc(CN2C(=O)c3ccccc3Sc3ccc(C(=O)NC4CCCCC4)cc32)cc1	inactive: 100%
COc1cc(C(=O)Nc2nnc(S(=O)(=O)N(C)c3ccccc3)s2)cc(OC)c1OC	active: 40%
COc1ccccc1CNC(=O)CS(=O)(=O)c1cccc2nsnc12	inactive: 68%
COc1cc(C(=O)NCC(c2ccc(N(C)C)cc2)N2CCc3ccccc32)cc(OC)c1OC (configuration not stated)	inactive: 101%
Cc1ccc(-c2nc3n(n2)C(c2ccccc2C)C=C(c2ccc(Cl)cc2)N3)cc1 (configuration not stated)	inactive: 126%
COc1ccc(OC)c(NC(=O)CCn2cnnn2)c1	inactive: 80%
COc1ccc(CCNC(=O)c2cc(-c3ccc(C)cc3)nc3n[nH]c(-c4ccccc4)c23)cc1OC	inactive: 107%
COc1ccc(CNC(=O)c2cc3c(=O)[nH]c4ccc(C)cc4c3s2)c(OC)c1	active: 44%
O=c1oc(-c2cccc3ncccc23)nn1Cc1ccccc1F	inactive: 102%
O=C(O)CCN(C(=O)C1C2C=CC(C2)C1C(=O)O)c1ccccc1 (configuration not stated)	inactive: 67%
CCCSc1nc2sc3c(c2c(=O)n1-c1ccccc1)CCC(C)C3 (configuration not stated)	active: 2%
Cc1cc(NC(=O)CSc2nc(-c3ccccc3F)nc3c2c(=O)n(C)c(=O)n3C)no1	inactive: 86%
COC(=O)c1cccc(NC(=O)C2CCN(S(=O)(=O)Cc3ccccc3)CC2)c1C	inactive: 77%
CCCCOc1ccc(OC(=O)c2sc3ncn(Cc4cccc(F)c4)c(=O)c3c2C)cc1	inactive: 83%
COc1cc2nc(SCc3ccc(Cl)cc3)n3nc(CCn4nc(C)cc4C)nc3c2cc1OC	inactive: 86%
